Data taken from PubChem BioAssay AID463173 (ICCB-Longwood Screening Facility, Harvard Medical School, 2010).
Screen size: about 52,000 compounds; about 1,700 (3.3%) were called active. Cut-off read from the data, not from the text of the source: active = survival mostly below about 52% (no sharp cut-off); inactive = mostly above about 56%. This is one part of the list.

system: Wild type; experiment: S. aureus survival, RN4220 and DeltatarO strains – OD600, teichoic acid synthesis inhibitors, primary screen (AID 463173); conditions: S. aureus RN4220 wild type/DeltatarO growth, OD600, 18 h, stronger effect = lower value, screened at 18.75 µg/mL (by protocol)

Compound	survival
COc1ccc(CNC(=O)c2cnn3c2NC(c2ccc(C)cc2)CC3C(F)F)cc1OC (stereo unspecified)	inactive: 126%
COc1ccc(CN2C(=O)C(NC(=O)c3cccc(C)c3)(C(F)(F)F)N=C2c2ccccc2)cc1 (stereo unspecified)	inactive: 77%
CCOc1ccc(NC(=O)CSc2cn(CCNC(=O)c3ccccc3F)c3ccccc23)cc1	inactive: 80%
Cn1c2ccccc2c2cnn(CC(=O)NCCCN3CCCCC3)c(=O)c21	inactive: 79%
CCc1ccccc1NC(=O)CSc1nncn2c1cc1oc(C)cc12	inactive: 79%
Fc1ccc(C(c2nnc(-c3ccccc3)o2)N2CCN(c3cccc(Cl)c3)CC2)cc1 (stereo unspecified)	inactive: 81%
CC(=O)N1c2ccccc2Sc2ccccc21	inactive: 102%
CC(=O)c1cccc(NC(=O)CSc2nnc3ccc(-c4ccc(Br)cc4)nn23)c1	inactive: 71%
O=C(NCCS(=O)(=O)N1CCN(c2ccc(F)cc2)CC1)C(c1ccccc1)c1ccccc1	inactive: 126%
CCOC(=O)C(CC)n1nnc2sc(-c3ccccc3)cc2c1=O (stereo unspecified)	inactive: 81%
CC(C)Oc1ccccc1-c1nc(SCC(=O)c2ccc(F)cc2)n[nH]1	active: -5%
Cc1ccc2oc(=O)c3cnn(CC(=O)N4CCN(c5ccc(F)cc5)CC4)c3c2c1	inactive: 83%
Cc1ccc(Nc2c(-c3c[nH]c4ccccc34)nc3ccccn23)cc1	inactive: 76%
Cc1ccc(-n2c(=O)c3sc4ccccc4c3n(CC(=O)NC3CCCC3)c2=O)cc1C	inactive: 63%
Cc1ccc(NC(=O)Cn2c(=O)n(Cc3ccccc3)c(=O)c3sc4ccccc4c32)cc1	inactive: 93%
COc1ccc(OC)c(CCNC(=O)c2cc3c(s2)-c2c(C)cccc2OC3)c1	inactive: 101%
Cc1ccc(CNC(=O)CSc2nc3c(sc4ccccc43)c(=O)n2CCCOC(C)C)cc1	inactive: 124%
CCN(CC)S(=O)(=O)c1ccc(NC(=O)CN(c2ccccc2)S(=O)(=O)N(C)C)cc1	inactive: 76%
O=C(CN1C(=O)C2(SCC(=O)N2c2cccc(Cl)c2)c2ccccc21)NCCc1ccccc1 (stereo unspecified)	inactive: 126%

Compound	survival
CCOc1ccc(NC(=O)c2c(Nc3ccccc3C)sc(C(=O)c3ccccc3)c2N)cc1	inactive: 83%
CC(=O)Nc1ccc(Cc2ccncc2)cc1	inactive: 102%
CCOc1ccc(NC(=O)C(Cc2ccccc2)NS(=O)(=O)c2ccc3c(c2)oc(=O)n3C)cc1 (stereo unspecified)	inactive: 106%
Cc1c(Cl)cccc1-c1ccc(CNCCSc2nnnn2-c2ccccc2)o1	inactive: 53%
CCS(=O)(=O)c1ncc(N(Cc2ccccc2)Cc2ccco2)c(C(=O)Nc2cccc(Cl)c2C)n1	inactive: 84%
COc1ccccc1C(=O)Nc1ccc2nc(SCC(=O)N(C)c3ccccc3)sc2c1	inactive: 84%
CCOc1ccc(CNC(=O)c2ccc3c(c2)c(C)c(C)n3Cc2ccccc2)cc1OC	inactive: 72%
Cc1ccc(S(=O)(=O)NCC2CCCO2)cc1 (stereo unspecified)	inactive: 116%
COC(=O)c1ccc(NC(=O)CSc2nc3cc4c(cc3cc2C#N)OCCO4)cc1	inactive: 102%
COc1ccc(CCNC(=O)c2ccc3c(c2)N(Cc2ccccc2)C(=O)c2ccccc2S3=O)cc1OC (stereo unspecified)	inactive: 103%
COC(=O)c1ccc(Cl)cc1NC(=O)Nc1nnc(N2CCCC2)s1	inactive: 84%
Cc1ccc(C)c(Cn2c3ccccc3c3cnn(CC(=O)NC(C)CCc4ccccc4)c(=O)c32)c1 (stereo unspecified)	inactive: 80%
Cc1ccc(-n2ncc(C(=O)N3CCN(c4cc(Cl)ccc4C)CC3)c2C2CCN(C(=O)OC(C)(C)C)CC2)cc1	inactive: 143%
O=C(Nn1c(Cc2ccccc2)nc2ccccc2c1=O)c1ccco1	inactive: 107%
C/C(COc1ccccc1OCC(=O)O)=N\NC(=O)c1ccncc1	inactive: 103%
COC(=O)CSc1ncc2c(n1)-c1ccccc1N(Cc1ccc(Cl)cc1)S2(=O)=O	inactive: 73%
COc1ccc(CCn2c3c(c(=O)[nH]c2=O)C(NC(=O)c2ccc(Cl)cc2)(C(F)(F)F)C(=O)N3)cc1OC (stereo unspecified)	inactive: 78%
COc1ccc(CNc2ncnc3c2nc2n3CCCC2)cc1	inactive: 129%
Cn1ncc2c(Nc3cc(C(F)(F)F)ccc3Cl)ncnc21	inactive: 77%

Compound	survival
COc1cccc(NC(=O)CN2C(=O)c3cccc4cccc2c34)c1	inactive: 98%
Cc1cccc(CNC(=O)Cn2c(-c3cccs3)cc3ccccc32)c1	inactive: 135%
COc1ccc(NC(=O)c2c(C)oc3ccc(O)c(CN4CCC(C)CC4)c23)cc1Cl	inactive: 62%
Cc1cccc(OCC(=O)Nc2ccccc2C(=O)OCc2cc(=O)n3ccsc3n2)c1	inactive: 73%
CCN(c1cccc(C)c1)S(=O)(=O)c1cc(Br)cc2c1N(C(C)=O)C(C)C2 (stereo unspecified)	inactive: 75%
CC(NC(=O)c1ccc2c(c1)N(Cc1ccc(Cl)cc1)C(=O)CS2)c1ccccc1 (stereo unspecified)	inactive: 73%
CCCN(c1c(C)n(C)n(-c2ccccc2)c1=O)S(=O)(=O)c1ccc(C)cc1	inactive: 89%
CCc1ccc(-n2nnc(-c3nc(-c4cccs4)no3)c2N)cc1	inactive: 93%
CC1CCN(C(=O)CSc2n[nH]c(-c3ccc(F)cc3)n2)CC1	inactive: 76%
COc1ccc2c(c1)c1c(c(=O)n(-c3ccccc3C)c(=O)n1Cc1cccc(C(F)(F)F)c1)n2C	inactive: 78%
CC(C)OC(=O)c1ccc(Cn2nnc3sc4c(c3c2=O)CCCC4)cc1	inactive: 17%
CC1=CS(=O)(=O)CC1	inactive: 93%
Nc1nonc1/C(=N/OC(=O)c1ccccc1)N1CCOCC1	inactive: 119%
CC(C)(C)C(=O)Nc1ccc(-c2nc3ccc(NC(=O)C(C)(C)C)cc3[nH]2)cc1	inactive: 148%
CCc1nc2ccc(C(=O)N3CCN(c4cc(Cl)ccc4C)CC3)cc2nc1CC	inactive: 71%
CC(C)OC(=O)Cn1nnc(-c2ccccc2)n1	inactive: 109%
Cc1ccc(S(=O)(=O)NCC2CCC(C(=O)NCCc3ccccc3)CC2)cc1 (stereo unspecified)	inactive: 72%
CCC(=O)N1CCc2cc(CNS(=O)(=O)c3cc(OC)ccc3OC)ccc21	inactive: 131%
